PubChem BioAssay AID686979 (National Center for Advancing Translational Sciences (NCATS), 2013)
Several values for one entry are separate records, joined by “and”; a condition that tells them apart may be missing. Identical values can stand only once. About 50,000 (12%) of roughly 420,000 compounds were called active. The shares of active, inactive and inconclusive entries below differ from those in the screen. Calls follow the shape of the dose curve; as a rule, active = well fitted inhibition curve with a large enough effect; inconclusive = small, poorly fitted or top-dose-only effect; inactive = flat fitted curve, though single readings scatter. No potency is given beside an inconclusive call; the fits are too rough.

Assay: qHTS for Inhibitors of human tyrosyl-DNA phosphodiesterase 1 (TDP1): qHTS in cells in presence of CPT; also: nearly all actives have a fitted effect of over 55% in size
Details: chicken DT40 Tdp1-/-;hTDP1 cells + 20 nM CPT, ATP luminescence, 48 h; activity change, negative = growth inhibition: at 46.2 µM (top of the series) unless noted
How it was run: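 Cell growth measured by CellTiter-Glo luminescence after a minimum 48 h, 37 C compound exposure with 20 nM CPT in Tdp1-knockout DT40 cells stably expressing hTDP1, seeded 400/well; qHTS titration format.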
% is scaled to controls: 0 for no effect and ±100 for the full control effect; potency is read from the fitted curve at half-maximal effect; tags tell the direction and shape of the fitted curve.

Row | SMILES | Potency | activity change, negative = growth inhibition
1 | CCc1ccc(/C=N/NC(=O)c2cc(-c3ccncc3)nc3ccccc23)s1 | active: 4.61 µM | 
2 | CN(C)C(=O)c1ccc(-c2ccc3ncnc(Nc4ccccc4)c3c2)cc1 | inconclusive [inhibitor, partial curve, poor fit] | 
3 | Cc1ccc(Oc2ncccc2NC(=O)CC(CC(=O)O)c2ccccc2)c2c1CCC2 (stereo not drawn) | inactive | 
4 | COc1ccc(C)cc1NC(=O)c1cnc2n(c1=O)CCS2 | inconclusive [inhibitor, single point] | 
5 | CCOC(=O)c1[nH]cnc1C(=O)Nc1ccccc1 | inactive | 
6 | C#CCOCCOCCOCCNc1nc(N2CCN(C(=O)[C@H](CCCN=C(N)N)n3cc(C(N)[C@@H](C)CC)nn3)CC2)nc(N2CCN(C(=O)[C@H](CC(N)=O)n3cc([C@@H](N)CC(N)=O)nn3)CC2)n1 (stereo partly drawn) | inconclusive [inhibitor, single point] | 
7 | CCOc1ccc(-n2ccc(=O)c(C(=O)Nc3ccc(S(=O)(=O)Nc4ncccn4)cc3)n2)cc1 | inconclusive [inhibitor, single point] | 
8 | O=C(O)CCc1cccc2ccccc12 | inactive | 
9 | COc1cccc(NS(=O)(=O)c2ccc3c(c2)CCN3C(C)=O)c1 | active: 7.31 µM | 
10 | COc1ccc(C)cc1NC(=O)CN1CCN(S(=O)(=O)c2ccc(Cl)cc2)CC1 | inconclusive [inhibitor, single point] | 
11 | COc1ccc(C(=O)Oc2c(Sc3ccccc3)c(C)nn2-c2ccccc2)cc1OC | inconclusive [inhibitor, single point] | 
12 | COc1ccc2c(CC(=O)Nc3cccc(S(=O)(=O)N4CCOCC4)c3)coc2c1 | inconclusive [inhibitor, single point] | 
13 | COCCCNS(=O)(=O)c1ccc(N2CCCCS2(=O)=O)cc1 | inconclusive [inhibitor, single point] | 
14 | O=C(CCl)N(Cc1cccc([N+](=O)[O-])c1)c1cccc(Cl)c1 | active: 2.31 µM | 
15 | CCCCc1nc(NCCNC(=O)c2ccco2)c(C#N)c2c1CSC(C)(C)C2 | active: 29.1 µM | 
16 | CCOc1ccc(NC(=O)C2CCCN(c3nc(C)cc(C)n3)C2)cc1 (stereo not drawn) | inconclusive [inhibitor, full curve, poor fit] | 
17 | CC(=O)/C(N=Nc1cc2c(cc1[N+](=O)[O-])OCCO2)=C(\C)O | inconclusive [inhibitor, single point] | 
18 | O=C(N1CCCCC1)C12CC3CC(C1)CC(C(=O)N1CCCCC1)(C3)C2 | inconclusive [inhibitor, single point] | 
19 | O=C(N/N=C/c1ccccc1Cl)c1nc2ccc([N+](=O)[O-])cc2c(=O)[nH]1 | inconclusive [inhibitor, single point] | 
20 | O=C(CNC(=O)c1ccc(Br)o1)NNC(=O)COc1ccccc1Cl | inactive | 
21 | COc1ccc(C(=O)c2ccc(Cl)cc2)c2ccccc12 | inconclusive [inhibitor, single point] | 
22 | Cc1ccccc1NC(=O)CSc1nc2ccc(NC(=O)c3ccccc3)cc2s1 | inconclusive [inhibitor, single point] | 
23 | C/C(=N\NC(=O)c1nnn(-c2nonc2N)c1CSc1ccc(Cl)cc1)c1cccnc1 | inconclusive [inhibitor, single point] | 
24 | O=C(O)/C(=C\c1ccc(Br)cc1)NC(=O)c1cccs1 | inactive | 
25 | O=C1NC(=O)/C(=C\c2ccc(Cl)nc2)S1 | inconclusive [inhibitor, single point] | 

Row | SMILES | Potency | activity change, negative = growth inhibition
26 | CCOc1ccccc1-n1c(SCC(=O)Nc2ccc(CC)cc2)nc2n[nH]c(C)c2c1=N | active: 11.6 µM | 
27 | Cc1ccc(-c2nc3c(c(=O)[nH]c(=O)n3Cc3ccccc3)n2Cc2ccccc2)o1 | inconclusive [inhibitor, single point] | 
28 | Cc1cccc(NNC(N)=S)c1 | inconclusive [inhibitor, partial curve, poor fit] | 
29 | COc1cc(-c2nc3cc(C)ccn3c2NC2CCCCC2)ccc1-c1ccc(C(C)=O)cc1 | active: 13 µM | 
30 | Cc1cccc(N2CCN(C(=O)c3cc4n(n3)C(C(F)(F)F)CC(c3ccco3)N4)CC2)c1C (stereo not drawn) | active: 20.6 µM | 
31 | O=C(NCCS(=O)(=O)NCc1cccnc1)c1ccccc1 | inactive | 
32 | CC(=O)Nc1ccc(-c2csc(Nc3ccccn3)n2)cc1 | inconclusive [inhibitor, single point] | 
33 | COc1ccc(OC)c(CCNC(=O)c2ccccc2NC(=O)C2=C(C)OCCS2)c1 | inconclusive [inhibitor, partial curve, poor fit] | 
34 | CCN(CCO)C(=O)CC1C(=O)NCCN1Cc1c(F)cccc1Cl (stereo not drawn) | inactive | 
35 | c1ccc(CCC2CCCCN2Cc2cn[nH]c2-c2cc3ccccc3o2)nc1 (stereo not drawn) | inconclusive [inhibitor, single point] | 
36 | CC1CCC(Nc2ncnc3onc(-c4ccc(Cl)cc4)c23)CC1 (stereo not drawn) | inconclusive [inhibitor, single point] | 
37 | CC(C)(C)c1nnc2cccc(Cl)n12 | inactive | 
38 | CC(=O)N(CCC(Cc1ccccc1)c1ccc2c(c1)OCO2)Cc1ccccc1F (stereo not drawn) | inconclusive [inhibitor, single point] | 
39 | O=C(NCCS(=O)(=O)NCc1ccccc1Cl)c1ccc2c(c1)OCO2 | inactive | 
40 | COC(=O)C(Cc1cnc(Cl)s1)(C(=O)OC)c1ccc([N+](=O)[O-])cc1[N+](=O)[O-] | inconclusive [inhibitor, single point] | 
41 | O=C(c1coc(=O)c(Br)c1)N1CCCc2ccccc21 | active: 1.84 µM | 
42 | Cc1cc(NC(=O)CSc2nc(N)c(NC(=O)c3ccccc3)c(=O)[nH]2)no1 | inactive | 
43 | CN(Cc1ccccc1)C(=O)c1[nH]cnc1C(=O)Nc1ccc(Br)cc1F | inconclusive [inhibitor, single point] | 
44 | CC(C)(C)c1ccc2c(c1)N(CC(=O)N1CCCC1)C(=O)CO2 | inactive | 
45 | Cc1ccccc1OCc1n(CC(=O)OC2CC(C)CCC2C(C)C)c2ccccc2[n+]1C (stereo not drawn) | active: 2.91 µM and active: 10.3 µM | 
46 | O[C@H]1C[C@H](c2ccc(Cl)cc2)N(CC2CCCCC2)C[C@@H]1n1cc(-c2ccc(F)cc2)nn1 | inconclusive [inhibitor, single point] | 
47 | COc1cc2nc(Nc3ccc(C)c(Cl)c3)nc(N)c2cc1OC | inconclusive [inhibitor, partial curve, poor fit] | 
48 | CCN(CC)c1ncnc2c1ncn2[C@H]1CN(Cc2ccc(Cl)cc2)C[C@@H](CO)O1 | active: 29.1 µM | 
49 | Cn1c(SCC(=O)NCC2CCCO2)nnc1-c1ccco1 (stereo not drawn) | inactive | 
50 | CCOc1ccc(N2C(=O)C(c3ccccc3)=C(c3nc4ccccc4s3)C2NC(C)=O)cc1 (stereo not drawn) | inconclusive [inhibitor, single point] | 

Row | SMILES | Potency | activity change, negative = growth inhibition
51 | COc1cc(C(=O)Nc2nc(C)c(Cc3ccc4c(c3)OCO4)s2)cc(OC)c1OC | active: 1.3 µM | 
52 | NC(=O)CC(NC(=O)Cc1ccc(Br)cc1)c1ccc(N2CCC(N3CCCCC3)CC2)c([N+](=O)[O-])c1 (stereo not drawn) | inactive | 
53 | CC(C#N)(Nc1ccc(Cl)cc1)c1cccnc1 (stereo not drawn) | inactive | 
54 | CC(C)c1nc(-c2ccc([N+](=O)[O-])cc2)cs1 | inconclusive [inhibitor, partial curve] | 
55 | O=C(CSc1nnc(SCc2cccc3ccccc23)s1)Nc1ccc(C(=O)O)cc1 | active: 18.4 µM | 
56 | Cc1ccc(NC2CCCN(C(=O)c3cn(C)c4ccccc34)C2)cc1C (stereo not drawn) |  | inconclusive: -32.8% [inhibitor]
57 | Cc1cc(C)cc(C(=O)Nc2ccc(N3CCN(S(C)(=O)=O)CC3)cc2)c1 | inactive | 
58 | CC1(C(=O)NCc2cccc3ccccc23)CCN1Cc1ccccc1OC(F)F (stereo not drawn) | active: 20.6 µM | 
59 | Cc1cc(NC(=O)c2cc3ccccc3o2)no1 | inactive | 
60 | O=[N+]([O-])c1ccc(NCCCc2ccccc2)cc1 | inconclusive [inhibitor, single point] | 
61 | CCn1c(SCc2nc(-c3ccccc3)no2)nc2ccccc21 | inconclusive [inhibitor, single point] | 
62 | O=C(CN1C(=O)S/C(=C\C=C\c2ccccc2)C1=O)Nc1ccc(O)cc1 | inconclusive [inhibitor, partial curve] | 
63 | Cc1ccc(F)cc1NC(=O)c1ccc(NS(=O)(=O)c2ccc(Br)s2)cc1 | inactive | 
64 | COc1ccc(NC(=O)N2CC[C@@]3(CCCNC3)C2)cc1 | inactive | 
65 | COC(=O)c1[nH]c2ccc(C)cc2c1NC(=O)Oc1ccccc1 | inactive | 
66 | Cc1ccc(NS(=O)(=O)c2cccc(C(=O)NC3CCN(Cc4ccccc4)CC3)c2)c(C)c1 | active: 9.2 µM | 
67 | O=C(NNC(=O)c1ccc(Cl)nc1)c1ccncc1 | inactive | 
68 | CC(C)(CNC(=O)CNC(=O)c1ccccc1F)N1CCOCC1 | inactive | 
69 | CCn1c(SCC(=O)c2ccc(O)c(O)c2)nnc1-c1ccc(C)cc1 | active: 23.1 µM | 
70 | O=C(Nc1ncc(S(=O)(=O)c2ccc([N+](=O)[O-])cc2)s1)c1cccc2ccccc12 | active: 14.6 µM | 
71 | CC(C)(C)NC(=O)Nc1nnc(SCC(=O)NC2CCCCC2)s1 | inconclusive [inhibitor, single point] | 
72 | Cc1ccc(CNC(=O)c2oc3ccc(S(=O)(=O)N4CCC(C)CC4)cc3c2C)cc1 | inconclusive [inhibitor, single point] | 
73 | COc1ccc(CCNC(=O)CCC(=O)N2CCOc3ccc(C)cc32)cc1OC | inactive | 
